Screen size: about 420,000 compounds; about 50,000 (12%) were called active. This list was built around the results that the source calls inconclusive (neither active nor inactive); the mix of calls is not that of the screen. Calls come from the whole dose curve; as a rule, active = well fitted inhibition curve with a large enough effect; inconclusive = small, poorly fitted or top-dose-only effect; inactive = flat fitted curve, though single readings scatter. Potencies of inconclusive entries are left out as doubtful fits.
Assay: qHTS for Inhibitors of human tyrosyl-DNA phosphodiesterase 1 (TDP1): qHTS in cells in presence of CPT; note: nearly all actives have a fitted effect of over 55% in size
Conditions: chicken DT40 Tdp1-/-;hTDP1 cells + 20 nM CPT, ATP luminescence, 48 h; activity change, negative = growth inhibition: at 46.2 µM (top of the series) unless noted
Method in brief: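 Cell growth measured by CellTiter-Glo luminescence after a minimum 48 h, 37 C compound exposure with 20 nM CPT in Tdp1-knockout DT40 cells stably expressing hTDP1, seeded 400/well; qHTS titration format.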
In the case of `CCN(C(=O)c1ccc2c(Cl)c3c(nc2c1)CCC3)c1ccc(C)c(C)c1`, the Potency is reported as active: 20.6 µM.
With `O=C(COc1ccc2c(c1)C(=O)CC1(CCCCC1)O2)NCc1ccccn1` the Potency was inconclusive [inhibitor, single point].
For `COc1ccc(-n2nnnc2C2CCN(S(=O)(=O)c3cccc(C(F)(F)F)c3)CC2)cc1`, the Potency was “inactive”.
With `Clc1ccc(-c2ccnc(Oc3ccc4ccccc4c3)n2)cc1` the Potency was “inactive”.
With `CC(=O)/C(=N\Nc1ccccc1Cl)Sc1cccc2cccnc12` the Potency was inconclusive [inhibitor, single point].
For `Cc1ccc(NC(=O)CCCc2nc(-c3ccco3)no2)cc1Cl`, the Potency was inconclusive [inhibitor, single point].
With `CC(C)C(N)c1csc(NC(=O)Nc2ccccc2C(C)(C)C)n1` (configuration not stated) the Potency was active: 18.4 µM.
With `CC(=O)c1ccc(N2CCN(C(=O)CCS(=O)(=O)c3ccc(C)cc3)CC2)cc1` the Potency was inconclusive [inhibitor, single point].
In the case of `Cc1ccc(CNC(=O)COC(=O)C2CC2)cc1`, the Potency is reported as “inactive”.
With `CC(=O)Nc1ccc(S(=O)(=O)NC2CCCCCC2)cc1` the Potency was inconclusive [inhibitor, partial curve, poor fit].
With `CCOC(=O)C1=C(C)N(C)C(=S)NC1c1ccccc1Cl` (configuration not stated) the Potency was “inactive”.
With `COc1ccccc1NC(=O)N(Cc1ccc2c(c1)OCO2)Cc1nc2ccccc2c(=O)[nH]1` the Potency was active: 17.8 µM.
For `CC(C)CCOc1ccc(C(=O)NCC2OCCc3ccccc32)cc1` (configuration not stated), the Potency was inconclusive [inhibitor, single point].
For `Cc1ccc(C)c(NC(=O)Cc2ccc(S(=O)(=O)N3CCCCC3)s2)c1`, the Potency was “inactive”.
With `COc1ccc(-c2noc(CCC(=O)N(C)c3cc(Cl)ccc3OC)n2)cc1` the activity change, negative = growth inhibition was inconclusive: 0.138% [inhibitor].
In the case of `COc1cccc(-n2c(=O)c3cc(OC)c(OC)cc3n(CC(=O)Nc3ccc(F)cc3)c2=O)c1`, the Potency is reported as inconclusive [inhibitor, single point].
In the case of `Cc1ccc(S(=O)(=O)NCCNc2ccc([N+](=O)[O-])cc2C(F)(F)F)cc1`, the Potency is reported as inconclusive [inhibitor, single point].
With `Cc1ccc(C2=NNC(=O)C(P(=O)(c3ccccc3)c3ccccc3)C2)cc1` (configuration not stated) the Potency was “inactive”.
For `CC(C)n1c(-c2ccc(C(C)(C)C)cc2)n[nH]c1=S`, the Potency was active: 11.2 µM.
For `O=C(Nc1ccc(N2CCN(C(=O)c3ccccc3)CC2)c(Cl)c1)c1ncn[nH]1`, the Potency was inconclusive [inhibitor, single point].
In the case of `CN(CC(=O)Nc1ccc(OC(F)F)cc1)S(=O)(=O)/C=C/c1ccccc1`, the Potency is reported as inconclusive [inhibitor, single point].
In the case of `Cc1cccc(C(=O)Nc2sc(C(=O)N3CCCC3)c(C)c2C#N)c1`, the activity change, negative = growth inhibition is reported as inconclusive: -30.4% [inhibitor].
For `Cc1ccc2ccccc2c1C(O)c1ncc(-c2ccc(Cl)cc2)[nH]1` (configuration not stated), the Potency was inconclusive [inhibitor, single point].
For `CCn1c(OC)nc2c1c(=O)n(C)c(=O)n2C`, the Potency was “inactive”.
With `Cc1cc(NC(=O)CSc2nnc3c4c(C)c(C)sc4ncn23)no1` the Potency was inconclusive [inhibitor, single point].
With `CCOC(=O)C1CCCN(C(=O)C2CCN(S(=O)(=O)c3ccc4ccccc4c3)CC2)C1` (configuration not stated) the Potency was inconclusive [inhibitor, single point].
For `C=CCOc1ccc(CNCC2CCCO2)cc1` (configuration not stated), the activity change, negative = growth inhibition was inconclusive: -30.2% [inhibitor].
In the case of `COc1ccc(NC(=O)CN2CCN(c3ccccc3F)CC2)cc1`, the Potency is reported as “inactive”.
For `N#C/C(=C\c1ccc(-c2ccccc2[N+](=O)[O-])o1)C(N)=O`, the Potency was “inactive”.
With `Cc1ccc2c(CN3CCN(c4ccccc4)CC3)cc(=O)oc2c1` the Potency was “inactive”.
In the case of `Cc1nc2ccccc2n1CCOc1ccc(F)cc1`, the Potency is reported as inconclusive [inhibitor, single point].
For `CCC(=O)N1CCc2cc(Br)cc(S(=O)(=O)CCC(=O)Nc3cccc(Cl)c3)c21`, the Potency was inconclusive [inhibitor, single point].
For `CCOc1ccc(C(=O)C2CCN(CC(=O)Nc3ccccc3N3CCOCC3)CC2)cc1`, the Potency was active: 16.4 µM.
For `O=C(/C=C/Nc1cccc(C(F)(F)F)c1)c1ccc(Oc2ncccn2)cc1`, the Potency was inconclusive [inhibitor, single point].
For `COC(=O)c1cnn(-c2nc(OC)cc(OC)n2)c1C`, the Potency was “inactive”.
For `CCN(C(=O)CSc1nnc(COc2cccc(C)c2)o1)c1nc(C)cs1`, the Potency was inconclusive [inhibitor, full curve, poor fit].
In the case of `CCS(=O)(=O)N1CCCc2cc(C(=O)Nc3cccc(C(C)=O)c3)ccc21`, the Potency is reported as inconclusive [inhibitor, single point].
In the case of `COc1cc(NC(=O)c2cccc(Cl)c2Cl)ccc1NC(=O)c1cc2ccccc2o1`, the Potency is reported as active: 5.17 µM.
For `O=C1CCCC2=C1C(c1cn(-c3ccccc3)nc1-c1cccs1)c1c([nH]c(=O)[nH]c1=O)N2` (configuration not stated), the Potency was “inactive”.
For `CCOc1ccc(C(=O)N(Cc2ccc(C(C)C)cc2)Cc2ccco2)cc1`, the Potency was inconclusive [inhibitor, single point].
With `O=C(Nc1nc(-c2ccccn2)cs1)c1ccco1` the Potency was active: 5.17 µM.
For `O=C(/C=C/c1cc([N+](=O)[O-])ccc1OC(F)F)Nc1cccc2ccccc12`, the Potency was inconclusive [inhibitor, single point].
With `O=[n+]1cc(-c2ccccc2)n([O-])c2c1CCCCC2` the Potency was “inactive”.
With `CCNc1ncc2ncc(=O)n(CCc3ccccc3)c2n1` the Potency was inconclusive [inhibitor, single point].
For `CCOc1ccc(Nc2ncnc3c2c(-c2ccccc2)cn3-c2cccc(C)c2)cc1`, the Potency was “inactive”.
For `CCOc1ccccc1CN1CCN(Cc2ccc3cc(F)ccc3n2)CC1CCO` (configuration not stated), the Potency was inconclusive [inhibitor, single point].
In the case of `CC1CCc2ccc(F)cc2N1S(=O)(=O)c1cccs1` (configuration not stated), the Potency is reported as inconclusive [inhibitor, partial curve, poor fit].

— PubChem BioAssay AID686979 (National Center for Advancing Translational Sciences (NCATS), 2013)
% is set by controls: 0 for no effect and ±100 for the full control effect; potency is the fitted concentration of half-maximal effect; tags give direction and shape of the fitted curve.
